Laboratory results as given in PubChem BioAssay AID1508623 (National Center for Advancing Translational Sciences (NCATS), 2021).
The whole screen tested about 48,000 compounds, of which about 450 (0.94%) were called active. The shares of active, inactive and inconclusive entries below differ from those in the screen. Calls come from the whole dose curve; as a rule, active = well fitted inhibition curve with a large enough effect; inconclusive = small, poorly fitted or top-dose-only effect; inactive = no such curve, though single readings can be large or run the other way. Potencies beside an inconclusive call are fits to weak or partial responses and may not hold up.

Assay: Primary qHTS for Identification of Small Molecule Inhibitors of Huntingtin Promoter Activity; note: nearly all actives have a fitted effect of over 50% in size
Details: HEK293 HTT promoter firefly luciferase reporter (activity 0% = vehicle and -100% = no light), 24 h; series mostly up to 57.5 µM
Method in brief: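 Quantitative HTS used concentration series of up to 57.5 uM final on HEK293 luciferase reporter cells, 24 h at 37 degrees C. Readout was Dual-Glo firefly luminescence.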
Potency is the fitted concentration of half-maximal effect; tags give direction and shape of the fitted curve.

Potency, active:
COc1cc(Cl)c(NS(=O)(=O)c2ccc3c(c2)CC(C)N3C(=O)C2CCC2)c(OC)c1 (centres undefined) 8.91 µM, COC(=O)c1c(C)oc2ccc(N(C(=O)c3ccncc3)S(=O)(=O)c3cc(C)c(C)cc3C)cc12 12.6 µM, COc1ccc(-c2noc(N3CCC(C(=O)Nc4cccc(C)c4C)CC3)n2)cc1 2.82 µM

Potency, inactive:
CCCCCn1c(=O)[nH]c2cc(C(=O)N3CCN(c4ccccc4)CC3)ccc2c1=O, N#C/C(=C\c1ccc(-c2ccccc2C(=O)O)o1)c1nc2ccccc2[nH]1, CCCN(CCC)CCCNC(=O)c1cc2c(=O)oc3ccc(C)cc3c2s1, COc1ccc(CCN2CCN(CCCc3ccccc3)CC2)cc1OC, Oc1ccc(-c2nc3ccccn3c2Nc2ccc3c(c2)OCCO3)cc1, CCCc1nn2c(=O)cc(COC(=O)c3cccc(NC(=O)CCc4ccccc4)c3)nc2s1, CC(=O)Nc1nonc1-c1nnc(SCc2ccc(F)cc2)n1C, CCC(C(=O)O)c1ccc(N2Cc3ccccc3C2=O)cc1 (centres undefined), COc1ccc(NC(=O)c2c(NCc3ccc(C)o3)sc3c2CCCCC3)c(OC)c1, CCOC(=O)c1cc2c(=O)n3ccccc3nc2n(Cc2ccco2)c1=NC(=O)c1ccc(C(C)(C)C)cc1, CC(=O)O[C@H]1C(=O)[C@@]2(C)C([C@H](OC(=O)c3ccccc3)[C@]3(O)C[C@H](OC(=O)[C@H](O)[C@@H](NC(=O)c4ccccc4)c4ccccc4)C(C)=C1C3(C)C)[C@]1(OC(C)=O)CO[C@@H]1C[C@@H]2O (some centres undefined), COc1cccc(CN2C(=O)c3ccccc3Sc3ccc(C(=O)NCc4ccccc4)cc32)c1

Potency, inconclusive:
Cc1ccc(C(Nc2ccccn2)c2ccc3cccnc3c2O)cc1 (centres undefined) 31.6 µM [inhibitor, partial curve, poor fit], COc1cc(Cl)c(C)cc1NC(=O)CCc1c(C)nc2cc(-c3cccc(F)c3)nn2c1C 15.8 µM [inhibitor, partial curve], CCc1c(C)sc2c1CCN(C(=O)Nc1ccccc1C(F)(F)F)C2c1ccccc1 (centres undefined) 28.2 µM [inhibitor, partial curve, poor fit], COc1ccccc1Nc1nn2c(=O)c3ccc(C(=O)N4CCC(C)CC4)cc3nc2s1 39.8 µM [inhibitor, single point], CC(=O)c1ccc(N2C(=O)N(Cc3cccc(C(F)(F)F)c3)c3ccccc3S2(=O)=O)cc1 39.8 µM [inhibitor, single point], CC1=C(C(=O)OC2CCCC2)C(c2ccc(F)cc2F)CC(=O)N1 (centres undefined) 35.5 µM [inhibitor, single point], Cc1ccc(CS(=O)(=O)c2cn(CC(=O)N(C)c3ccccc3)c3ccccc23)cc1 39.8 µM [inhibitor, single point], COc1ccc(N(Cc2cccs2)C(=O)c2ccccc2C)cc1 28.2 µM [inhibitor, single point], CCOC(=O)c1c(-c2ccccc2)oc2ccc(NS(=O)(=O)c3ccc(OC)cc3)cc12 14.1 µM [inhibitor, partial curve, poor fit], CCCS(=O)(=O)c1ncc(Cl)c(C(=O)N2CCN(c3ccc(OC)cc3)CC2)n1 39.8 µM [inhibitor, single point], CN(C)Cc1cccc(N=C(c2ccccc2)c2c(O)[nH]c3cc(C(=O)N(C)C)ccc23)c1 19.3 µM [inhibitor, partial curve, poor fit], O=C(CCCCn1c(=O)c2ccccc2n(Cc2ccc(Cl)cc2)c1=O)NCc1ccccc1Cl 31.6 µM [inhibitor, single point], Cc1ccc(NC(=O)CSCc2cnn(-c3ccccc3)c2-n2cccc2)c(C)c1 39.8 µM [inhibitor, single point], Cc1ccc(C)c(N2CCN(CCCNC(=O)C3COc4ccccc4C3)CC2)c1 (centres undefined) 15.8 µM [inhibitor, partial curve, poor fit], Cc1cc(-c2ccc(C)c(S(=O)(=O)N3CCCC(C)C3)c2)on1 (centres undefined) 22.4 µM [inhibitor, partial curve], O=S(=O)(Nc1cccc(Cl)c1)c1ccc2[nH]c3c(c2c1)CCCCCC3 39.8 µM [inhibitor, partial curve, poor fit], CCc1ccc(CNC(=O)c2ccc(CSc3nc4ccncc4n3Cc3ccc(OC)cc3)cc2)cc1 11.2 µM [inhibitor, partial curve], CCOC(=O)c1c(S(=O)(=O)N2CCC(C(=O)N3CCN(c4cccc(C)c4C)CC3)CC2)c(C)n(C)c1C 31.6 µM [inhibitor, partial curve, poor fit], Cc1ccc(Nc2cc(C)nc3nc(Cc4ccc(Cl)cc4)nn23)cc1 39.8 µM [inhibitor, single point], Cc1ccc(-c2ccc(=O)n(Cc3ccc(F)cc3)n2)cc1 15.8 µM [inhibitor, single point], Cc1nc2cccnc2n1-c1cccc(C(=O)NCc2ccc(OC(C)C)cc2)c1 14.1 µM [inhibitor, partial curve, poor fit], O=C(NCc1ccccc1Cl)C1CCN(S(=O)(=O)c2ccc3c(c2)CCCN3C(=O)C2CCC2)CC1 25.1 µM [inhibitor, partial curve], CCOc1ccc(NC(=O)c2sc3nc4c(cc3c2N)CCCCCC4)cc1 10 µM [inhibitor, partial curve, poor fit], O=C(c1cccs1)N(Cc1cccnc1)c1nc2ccc(F)cc2s1 35.5 µM [inhibitor, single point], CCc1c(O)cc(O)c(C(=O)c2ccc(OCCN3CCOCC3)c(OC)c2)c1CC(=O)N(CCOC)CCOC 7.69 µM [inhibitor, partial curve], Cc1ccc(CN(Cc2ccco2)C(=O)COc2c(C)cc(C)cc2C)cc1 20 µM [inhibitor, partial curve, poor fit], CCOc1ccc(CNC(=O)C2CCN(S(=O)(=O)N3CCCCC3)CC2)cc1 39.8 µM [inhibitor, single point], Cc1cccc(N2CCN(C(=O)c3ccc4c(c3)N(Cc3ccccc3F)C(=O)c3ccccc3S4=O)CC2C)c1 (centres undefined) 28.2 µM [inhibitor, partial curve, poor fit], CCCCN(CCCNC(=O)CN1N=C(c2ccccc2)CCC1=O)c1ccccc1 25.1 µM [inhibitor, partial curve], COc1ccc(CCCc2nnc(SCC(=O)Nc3cc(F)ccc3C)o2)cc1 31.6 µM [inhibitor, single point], COc1cccc2cc(-c3nc(C4CCC(C(=O)O)CC4)n4ncnc(N)c34)[nH]c12 (centres undefined) 1.22 µM [inhibitor, full curve], CN(C(=O)CSc1nc2ccc(NC(=O)c3cccc(F)c3)cc2s1)c1ccccc1 22.4 µM [inhibitor, partial curve, poor fit], COc1ccc(-n2c(/C=C/c3cccc4ccccc34)nc3ccccc3c2=O)cc1OC 39.8 µM [inhibitor, single point], Cc1cccc(N(CC(=O)NCCc2ccccc2)S(=O)(=O)c2ccccc2)c1C 31.6 µM [inhibitor, partial curve, poor fit], CCC(CC)C(=O)Nc1nnc(S(=O)(=O)N(C)c2cc(C)cc(C)c2)s1 25.1 µM [inhibitor, partial curve, poor fit], CCOC(=O)c1c(NC(C)=O)c2c3c(sc2n1Cc1c(C)cc(C)cc1C)CCCC3 15.8 µM [inhibitor, partial curve], O=C(Nc1cccc(F)c1)c1ccc2oc(=O)n(Cc3ccccc3)c2c1 39.8 µM [inhibitor, single point], O=C(Nc1ccc(Cl)cc1)c1cnn2c1NC(c1ccccc1)=CC2c1ccccc1 (centres undefined) 25.1 µM [inhibitor, partial curve], Cc1ccc(NC(=O)c2ccc(NC(=O)N3CCSc4ncccc43)cc2)c(Cl)c1 14.1 µM [inhibitor, partial curve, poor fit], COc1ccc(-c2cc(C)no2)cc1S(=O)(=O)N1CCN(c2cccc(C)c2)C(C)C1 (centres undefined) 12.6 µM [inhibitor, partial curve, poor fit], O=C(Nc1ccccc1)c1cnc(N2CCCCC2)c2ccccc12 28.2 µM [inhibitor, single point], Fc1ccccc1Nc1c2c(nc3ccccc13)CCC2 31.6 µM [inhibitor, single point], CCN(CC)c1ccc(NC(=O)c2c(C)nn(-c3ccc(F)cc3)c2-n2cccc2)c(C)c1 22.4 µM [inhibitor, partial curve, poor fit], CCc1ccc(NC(=O)CSc2nc3nc(C)cc(C)n3n2)cc1 14.1 µM [inhibitor, single point]
